{"source": "the supplement of paper PMC12632987", "binders": {"B1": {"name": "LC3A_28_740 (protein)", "chain": "SALEEQLAAALARAREAAAAGESAVIEITVPGDADEEDIEKVIKALEEIAAILADTPDQAIVINIEGGVKEEHINKIADAAEEIEAKYPNVTVILALDEE"}, "B2": {"name": "LC3A_3_1573 (protein)", "chain": "KEEKLKAYIEKLRKAGFSEEVIEAARKALEALLAKGAEKAADIVLETLLKLKDAPDELLIAFLEDVIALVETDKGSKEELTKKVEELATTFLNEAEIEEL"}, "B3": {"name": "LC3A_3_1777 (protein)", "chain": "MEELIEETLEELRRAGKSEETIEAAREAMELLKERGYEEALKTLAEETRELLDIPDEILLDMLEEVLEKLKTEDLSEEEVIEFIKEEAELARNESEIEEL"}, "B4": {"name": "LC3A_28_854 (protein)", "chain": "SATEESIEKARAELAAARAAKEPAVITVTVRSDVTEEEVERVIELIDEAAEASKEVPDLALIIDFDGEIDPEHLQRIMDRGEEAEERNPTLTVIFALDEE"}, "B5": {"name": "LC3A_28_951 (protein)", "chain": "MSLEERLAAALAEAKAAAAAGEPAVITITVPGDATEEDIEKVIEALEEIAEILKDVKGAAIVIDVEAGVKQEHIDKLADAAEEIEKKYPNVTVIIALDED"}, "B6": {"name": "LC3A_3_1347 (protein)", "chain": "MKELIEAAVARLRAAGFSEEVLAAARAAMEALAALGHEEGIERLTEVLLRHRDAPPEHLVEALRNLTAELERNPDLTEEEVRELIELFDSELEIEPLEEE"}, "B7": {"name": "LC3A_28_1167 (protein)", "chain": "SKTEKSIEEALKKAKEAAKKKEPTVIEIYVPGGVTEEETEKVIKAIEEIAELLKDIKGSAIVIDIDSGVKQEHIDKIIEKAEEVEEKYPNINVIIALDED"}, "B8": {"name": "LC3A_127_184 (protein)", "chain": "ELKKLAEELIKKLEKAIEELQKENYNEEEIKKLLKEAKELAKKAVKLDPSFEPVLKDIEEAQKLFEQLLKAPEEEKESLREHLIMLLDGAIIEVESLLLK"}, "B9": {"name": "LC3A_free_8_2524 (protein)", "chain": "SKQEFANKATEVLDELEEKLRKALEELGASRLDILEAEVLVGSIIAEVISLSDKEPEEQLKAIKEGLKDLVEELEKYKETVKKLADEALKKIEEIKKELE"}, "B10": {"name": "LC3A_102_150 (protein)", "chain": "LPKETQEKIEKVIEETLKKVEELAKGLPEEERKEALEVAREALEAARRNAITLAQHGYTDIEEEDKIIENLEKLEKISPELAEVVRKAIEEIEKIIKESA"}, "B11": {"name": "LC3A_28_1114 (protein)", "chain": "SPIDENLAAALAEARAAAAAGEPVVVTITVSADDTQEDIDKVIATLKEIADILKDVKDAAIIIDLDGKVPQEHLDKLADTAEEIEKKYPNITVIIALDEE"}, "B12": {"name": "LC3A_28_1001 (protein)", "chain": "NAIEANLEEVLAQAKEAKEKGEPVVLTIKVSGKATQEDIDKIIEKLEEIAEVLKDIKGAAIIIDIDGKVPQEFIDKIADKAEEIEEKYPNITVIIALDED"}, "B13": {"name": "LC3A_3_1715 (protein)", "chain": "MEKIKEEILKTLKEQGKSEETIKAAEELLEALEEKGYEKAAETLLEEVKKLKNVSSEILLAMFEDLLLKVKEENLNEEEVIKEIEEEARVAKNEQEIDDL"}, "B14": {"name": "LC3A_free_8_2527 (protein)", "chain": "SVQELVDQLTADLDELEAALVAKAKELGLSQLDINELELAVGEAKIEIIELIDKSKEEILKKLREELKEIIELAKELSPEVAKLAKEKSAEILARAEKMI"}, "B15": {"name": "LC3A_3_1810 (protein)", "chain": "MEERIERALEELREAGASEETLEAVREAVELLLEKGYEEAAETFIELALELKHLPSELLLEFAQEVKELVETSDLSEEEITEEIKRIASTVRNEGEIIEL"}, "B16": {"name": "LC3A_free_46_2293 (protein)", "chain": "YLVEIDVDVDGLTEEEAKEFVKEFKEKLEEIAKKYGVEVEVEYKISKNEDGTYSVEIKVKVKAPTLEIAQKVKNEIIDAIDELAEKYGASYIISYEIKEA"}, "B17": {"name": "LC3A_3_1786 (protein)", "chain": "MEEKKEELLKELKEAGKSEETIEAAREVLDLLIEKGYEEAFETFIEELRKLIDFPDDILLDMLKEVLELLKTNDWSEEEIKKKIKELAELARNEAEIEEL"}, "B18": {"name": "LC3A_28_1228 (protein)", "chain": "SHVDEEIERAEAQAEAALAAGEEALITVKVTKETTVEDAKRLMEALERIVERAKGLPAISIVVDVEAGVSQEVIDTIAELGERIEKKFPNVTVIIALDEN"}, "B19": {"name": "LC3A_28_1073 (protein)", "chain": "SATEKENEALLAEAKAGREAGEPVVITVVIDENDTDEDIELKLKTIEEIAEILKDVEGAAIIIDLEGERAKSHLDEVADKADELEEKYPNLTVIIALDDE"}, "B20": {"name": "LC3A_147_511 (protein)", "chain": "YEVEVDVDIITKDAEEEVIEEFKEIAEELKKKGYEVELEIEVEELENGITYIHVKITVKTETEEEAKEVANYILDKIDEIEEKLKDKILGSMISVEIIKK"}, "B21": {"name": "LC3A_28_1237 (protein)", "chain": "NAVEKQIKEAKKEVEKAVAEGKEALVTLTVTKDTTEEDVEKIIKAMKEIAELGKTLPALDIIVDVEKGVKQEHIDKLADAAEEIEEKYPNVTVIIALEEE"}, "B22": {"name": "LC3A_3_1442 (protein)", "chain": "SEEILERAREVAEEIGLSEEAIEAVLELVRRALEAGEEEEAERLIEVLAESKDVESEEVLEIAEEALRRIEEEGVSMKEAIEEFIEELRVLRLEKEIEEL"}, "B23": {"name": "LC3A_17_554 (protein)", "chain": "SEELKEEIKRLLEELEALVEELEKYDPEAAKELRKKLEEAKKALEEGDLEEALKILKEVAEEAAERWDSLEHIDPERMSILSMEAEGLLIEALSLEEKLE"}, "B24": {"name": "LC3A_3_1788 (protein)", "chain": "MEAARAALLAALRAAGHSPETIAAVEATAAALIARGYEAAFATFVAEMRRLLDAPDELLLALAQSVLARLETEDVSEEELTAFIREEARLAALESEIEEL"}, "B25": {"name": "LC3A_28_673 (protein)", "chain": "SPLEEALEKALKKAKEAAEKGEPVVITIDVPGDATPEEVERLIEALEEIAEILKDVPGSAIIINLDGDLDQEHRDRLIDAADEINEKYPNVTVIVALEEK"}, "B26": {"name": "LC3A_28_719 (protein)", "chain": "SMLEKSLKKALEEAKKAAERGEEVVIEIEVPGDATEEDIEKVIETLEEIAEILKDLPSTAIIIDVDGKVKQEHIDKLADHAEEIEKKYPNVTVIIALDEN"}, "B27": {"name": "LC3A_free_39_2183 (protein)", "chain": "SSEETKKLKEELLKLAEEEGEETKELAEKLIELIGEELERIKRLLELMKKLKEAGVDLKEALKEALELAEELKKKGKSKEEIAEAVLELMQDKYNLIPID"}, "B28": {"name": "LC3A_3_1864 (protein)", "chain": "MEEIKEKILELLKKLGRSEETIKAAEELANALIERGYLEALKTLLEELEKLKDVDDEILLDMFKDILEALKTKNLNEEETIKLIKEEATIALNEHEIEEL"}, "B29": {"name": "LC3A_28_799 (protein)", "chain": "SKVKENVDKALEEARAQIAAGEPVFVEINIPKDATKEEIDYVAEAIREIARAAKAAGLPAVDIVINNENNEEAIKKISETEDKLRAEGLPINVVIAIDEP"}}, "note": "The full ranking holds about 2,300 sequences; the median of “median log2 fold change of GCK-ALFA target abundance (FLAG IP / Myc IP barcode read proportion)” is about 0.095, and the lowest 2% start at about -0.47. The list shows a part of the results."}
{"target": "MAP1LC3A, Q9H492", "experiment": "median log2 fold change of GCK-ALFA target abundance (FLAG IP / Myc IP barcode read proportion) (log2 ratio); each designed protein is fused to an ALFA-tag nanobody in HEK293 cells to bring the named protein to FLAG-tagged glucokinase (GCK); Myc marks an untargeted standard; higher = target protein stabilised (more abundant)", "conditions": "target protein: 3xFLAG-MCP-GCK-ALFA reporter; HEK293 landing pad (RPLP)", "procedure,_shortened": "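An ALFA-nanobody-fused binder library was recombined into HEK293 landing-pad cells and induced with 2 μg mL^−1 doxycycline. Cells were transfected with a plasmid expressing a FLAG-tagged target and a Myc-tagged standard. After 48 h, lysates underwent anti-FLAG and anti-Myc immunoprecipitation, and circular RNA barcodes were reverse transcribed, amplified and sequenced. Target abundance is the per-binder median log2 ratio of FLAG to Myc barcode read proportions. Barcodes needed ≥10^−7 proportion in both replicates, binders ≥3 barcodes per replicate, and a 10^−6 pseudocount was added; the two replicates were pooled.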"}
{"binder": "B1", "median log2 fold change": 0.0876}
{"binder": "B2", "median log2 fold change": 0.0873}
{"binder": "B3", "median log2 fold change": -0.0532}
{"binder": "B4", "median log2 fold change": 0.0188}
{"binder": "B5", "median log2 fold change": -0.00138}
{"binder": "B6", "median log2 fold change": 0.334}
{"binder": "B7", "median log2 fold change": -0.386}
{"binder": "B8", "median log2 fold change": 0.188}
{"binder": "B9", "median log2 fold change": -0.575}
{"binder": "B10", "median log2 fold change": 0.0429}
{"binder": "B11", "median log2 fold change": -0.0789}
{"binder": "B12", "median log2 fold change": 0.0763}
{"binder": "B13", "median log2 fold change": 0.262}
{"binder": "B14", "median log2 fold change": 0.0525}
{"binder": "B15", "median log2 fold change": 0.209}
{"binder": "B16", "median log2 fold change": 0.122}
{"binder": "B17", "median log2 fold change": 0.313}
{"binder": "B18", "median log2 fold change": 0.00959}
{"binder": "B19", "median log2 fold change": -0.314}
{"binder": "B20", "median log2 fold change": -0.745}
{"binder": "B21", "median log2 fold change": 0.0668}
{"binder": "B22", "median log2 fold change": 0.133}
{"binder": "B23", "median log2 fold change": 0.24}
{"binder": "B24", "median log2 fold change": 0.235}
{"binder": "B25", "median log2 fold change": 0.214}
{"binder": "B26", "median log2 fold change": -0.111}
{"binder": "B27", "median log2 fold change": 0.066}
{"binder": "B28", "median log2 fold change": 0.325}
{"binder": "B29", "median log2 fold change": 0.123}
